These results are taken from the RNAGym collection of RNA variant scans (doi:10.1073/pnas.2313332121).

The labels stand for the following.
B1: TPR 5TU (parent)
chain: GGAUCUUCUCGAUCUAACAAAAAAGACAAAUCUGCCACAAAGCUUGAGAGCAUCUUCGGAUGCAGAGGCGGCAGCCUUCGGUGGCGCGAUAGCGCCAACGUUCUCAACUAUGACACGCAAAACGCGUGCUCCGUUGAAUGGAGUUUAUCAUG

Variants at the floor of the assay are shown more often than the library holds them.

The variants in this data set derive from B1. Put plainly: polymerase ribozyme fitness, log enrichment relative to wild type (log ratio); higher = more active; in vitro selection for triplet polymerase activity. A digest of the protocol: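 The heterodimeric triplet polymerase ribozyme's subunits were each mutagenized into PCR-built libraries and transcribed. Every library was selected once, in triplicate, by annealing with a biotinylated primer, the partner subunit and triplets, incubating frozen at −7 °C, gel-excising extended constructs, capturing on streptavidin beads and running RT-PCR. Input and output libraries were Illumina-sequenced, with genotypes kept only at ≥10 input reads and ≥1 read per output. Fitness, from inverse-variance-weighted replicate averages, is the base-2 logarithm of genotype enrichment over wild-type enrichment.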
In the case of A3U A23U A113U, the “polymerase ribozyme fitness (log ratio)” value was ≤ -4.2.
Next, U4C U56A U61A C85A C125G U134C G141U: ≤ -4.2; A3G U31C A37C G84A A107C G152U: ≤ -4.2.
The figure for A3U C14G C38U G70A A91U C99U U101G G136U G141A is ≤ -4.2.
A3U G50C U61A G88A C99G U135C U146C: the “polymerase ribozyme fitness (log ratio)” value was ≤ -4.2.
In the case of A3U A30U G34A G50A U77G U82G G100A A122U G143U, the “polymerase ribozyme fitness (log ratio)” value is ≤ -4.2.
The figure for A3U G88U is ≤ -4.2; for A3G U4A U44A C54U G74C G88U G141C it is ≤ -4.2.
Next, A3G A21U U53A U78A C93U C108U: ≤ -4.2.
Next, U4A A23U C35U G46A G84U C103U U139A: ≤ -4.2; U4C C5A A24G A28C C54U G84U A138C: ≤ -4.2.
Take A3G U4G C93G A113C: the “polymerase ribozyme fitness (log ratio)” value is ≤ -4.2.
The figure for A3G U7G C38U A40G C54G C95U U145A is ≤ -4.2; for A3U C38U U55A A60C G68U G71A A107U G133C A137G U139C it is ≤ -4.2; for U4A C76A G86C A122C it is -3.26.
Next, A3U C96U A97G: 0.661.
Next, A3U G50C U77C A91C A97U: ≤ -4.2; A3U A37U C96U C118G: -3.38; U4A U45A C57U A91C: ≤ -4.2.
As to U4G U13G U44G C75U G86A A91G C93A C131U, the “polymerase ribozyme fitness (log ratio)” value is ≤ -4.2.
Next, U4A G11C A20U A28U G143U U146G: ≤ -4.2; A3U C57A C72U G86A C116G G140U: ≤ -4.2; A3U C38A C85G C99U G124A: -3.77.
Next, U4A U15G C87U: 0.183.
The figure for A3U G25U C27U C36A C87U C105G C118U G152C is ≤ -4.2; for U4A A19C A41U U56C G124A G143A it is -3.84.
A3C U7A U13G A60C G70C C79U: the “polymerase ribozyme fitness (log ratio)” value is ≤ -4.2.
The figure for U4G C18G A22U C27U U55A C85U G126U U135A is ≤ -4.2; for A3U C14U G50C C75U C93U it is ≤ -4.2.
The figure for A3U G50C U53A G68A C76G G94U A97G A120C C125U is ≤ -4.2; for U4A G65A C85U A97U it is -2.2; for U4G G80C G86U it is ≤ -4.2.
With U4G U9A C35A G48C U134G, the “polymerase ribozyme fitness (log ratio)” value was ≤ -4.2.
For the variant U4C A17G C18A C57A G59A G68A C96A A107U A121U C123G, the “polymerase ribozyme fitness (log ratio)” value is ≤ -4.2.
The figure for U4G C32U C35U G46A C76G G84U is ≤ -4.2; for A3U A12C G83C U127G U134C it is ≤ -4.2.
Regarding U4G A30G A39U A60G C87U U104A A106U, the “polymerase ribozyme fitness (log ratio)” value was ≤ -4.2.
Next, U4C U53A U55A G81C A150U: -1.4.
The figure for A3G C10G C35A G59C C96U A115U C116G C118G U134C G143U U146A is ≤ -4.2.
The figure for U4C C5A C10U U33A G88C C116U G140A is ≤ -4.2; for A3U C5A A30U A39U A49U C99U G124A it is ≤ -4.2; for A3U C14U A17G G48A C99U A122G C123A it is ≤ -4.2.
As for U4A G84A C103A A106U A142C C149U, the “polymerase ribozyme fitness (log ratio)” value is ≤ -4.2.
Regarding A3U U9C A17C A29C C57U A64G A73G G83C A115C A119G, the “polymerase ribozyme fitness (log ratio)” value is ≤ -4.2.
The figure for U4A A41C G126C is -1.9; for A3U C14G A29C C38U G67A G81A C87U G92C A121G C132A U144A G152A it is ≤ -4.2.
Next, A3G A29U U31G C105U C116G G124A: ≤ -4.2.
The figure for U4G G25C C27U C75G U78C G80A G92A G100A C108U U109C is ≤ -4.2; for U4G A20U A24U G94C C99G G128U it is ≤ -4.2; for A3G C18U A39C G84A U111C C129A it is ≤ -4.2.
Regarding A3U C85A, the “polymerase ribozyme fitness (log ratio)” value is -1.48.
Regarding C5A A17U C18G C27A A47C G86U A89U U111A A113C, the “polymerase ribozyme fitness (log ratio)” value was ≤ -4.2.
The figure for A3G C14G A29C C93U A107U is ≤ -4.2.
Next, U4A A19U A24U C35A C57G A60C U101G: ≤ -4.2; C5A A16U A24U C35A U56A C85G U109G U144C: ≤ -4.2.
The figure for U4C C18U G48U A49C G68U G74A C76A G88U C116G is ≤ -4.2; for A3U C32G C75A G84C it is ≤ -4.2; for A3G U13G A39C G48U C76G C103A C116A it is ≤ -4.2.
U4G U13A C57A A106C G136A: the “polymerase ribozyme fitness (log ratio)” value is -1.91.
The figure for U4C G11A G68A C72A G83U C93G G140A U148C is ≤ -4.2.
Take A3U A60G G70C G80C G86A U135G U144A: the “polymerase ribozyme fitness (log ratio)” value was ≤ -4.2.
Turning to A3G A24C A41C A150C, the “polymerase ribozyme fitness (log ratio)” value is ≤ -4.2.
The figure for U4C C8U A24U C27A A29U C79A G86A U109A U127A is ≤ -4.2; for A3U G68U U78A C79A C85U C108A C114A it is ≤ -4.2.
Next, A3U C8U: -0.611; A3G U31A U44G G62A G94A: ≤ -4.2.
Next, A3U C51G G86A A91U C125U: ≤ -4.2; U4G U45A G80C C87A A91U A142C: ≤ -4.2.
Regarding A3U C14A C35U A47C U55A A138C, the “polymerase ribozyme fitness (log ratio)” value is ≤ -4.2.
The figure for A3G A12G U56A C75U C76U C93U A97U is ≤ -4.2.
The figure for U4C A12U C14U G25C U82G A89G G92U C96A A137C is ≤ -4.2; for U4G A23U A97G it is ≤ -4.2.
Regarding A3U U31G C35U G50C A66C C85U A121G, the “polymerase ribozyme fitness (log ratio)” value was ≤ -4.2.
Next, A3U G59U G80C G92U A113G U127G: ≤ -4.2; U4C G83C G141U U151G: ≤ -4.2; U4A U9C A22U C76G U78G C93A G136U: ≤ -4.2.
As to A3G U6G A12U C14A U53G G84A A119U A147C U151G, the “polymerase ribozyme fitness (log ratio)” value was ≤ -4.2.
Next, U4C A20C U53A G68A C79U U82G A91U G117U: ≤ -4.2; U4A G58A C76G G80U C118A: ≤ -4.2.
The figure for U4C A12C A64G G80A A91G is ≤ -4.2; for A3U A20U U33G C43U G48C C57U C85U C103A it is ≤ -4.2; for A3U A28U U44G C72G G83U G86U G141A it is ≤ -4.2.
The figure for U4C A52C G68U G88C U104A A107G is ≤ -4.2; for U4C U15C C35G A40U C76A C93A A115U it is ≤ -4.2.
